From PMC12136788 come the findings set out here.

The chains are these.
T1: UNK ZnF1-3 (human, UniProt Q9C0B0 31-174)
T1 sequence: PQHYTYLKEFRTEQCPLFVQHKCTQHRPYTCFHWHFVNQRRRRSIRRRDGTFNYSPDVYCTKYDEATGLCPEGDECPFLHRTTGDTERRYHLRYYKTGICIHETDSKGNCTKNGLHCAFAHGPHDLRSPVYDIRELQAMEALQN

B1: chrX:140365796:140365797:-_ENSMUSG00000031285_ENSMUST00000033642|mus_mus|mus_mus_mus_hu_False|28_78 (ssRNA)
RNA: GGGAGUUCUACAGUCCGACGAUCCUUCUCAUUACUCAGUGCCUGCAAGGUUCUGGUUCUGUAGAAGCUACAGUGGGCGCUGUGAGUGGGGCUAGGCAACCCAUUCAUCCGUGACCCUCGCAUGUUCCUGGAUGUCUUAUCUCUCAACAGAGGAUUGAGCAUCA
B2: chr19:60011576:60011577:-_ENSMUSG00000040022_ENSMUST00000171986|mus_mus|FALSE|FALSE (ssRNA)
RNA: GGGAGUUCUACAGUCCGACGAUCUUUUGCUGUAAACGGGUUAGUUGACUCAUAUUCAAAAUAGUCCUGCCGGUUUUCACUAAAAGCACUAGGUGAUUUCAAGUCACAUGGGCUAUCAGAUCCACCAUUGUUCAGCUUGUCAGGCAACAGAGGAUUGAGCAUCA
B3: chr2:163839828:163839829:+_ENSMUSG00000018326_ENSMUST00000018470|mus_mus|motif|central (ssRNA)
RNA: GGGAGUUCUACAGUCCGACGAUCGGAGUUGGACACCGUGGUUUGUUUAUUUUCUCCGGAUGCAACUUCAGAAAGAUACCGGAAGUAGUCUCCUUUCAUUUUUAAGUAGAACACUUUGCUUUCUGCCUGGGUGGCAUUGAGAAUCAACAGAGGAUUGAGCAUCA
B4: 54362245_54362365_1468_3pUTR_ENSG00000091157_ENST00000357574|human|control|control (ssRNA)
RNA: GGGAGUUCUACAGUCCGACGAUCAACUAUGCUUCCAUCUUCACGACCACAAACAAGUCGUCCAUGUGCUGGUAUGUACACACUUGCAGUUACUUUAAGAGGUUCAUUACUAUUGGGAAUCACACUCAGCUGAUCUAUAAUUCCCAACAGAGGAUUGAGCAUCA
B5: chr2:217001844:217001845:+_ENSG00000079246_ENST00000392132|hu_hu|hu_hu_hu_mus_False|98_98 (ssRNA)
RNA: GGGAGUUCUACAGUCCGACGAUCACCAACUUGAGGAUUAGCUCUUUUGUCAUAAGCAUAUCGGACGAUGGCGACCAUGUUUAACUCAUCCAAAGCAUGAACGAGAGAGGAAAGGGCAACAGCUGCCGCCUCAUCAUCCUUUGCCAACAGAGGAUUGAGCAUCA
B6: chr1:225611761:225611762:-_ENSG00000143815_ENST00000272163|hu_mus|hu_hu_hu_mus_True|1_1 (ssRNA)
RNA: GGGAGUUCUACAGUCCGACGAUCCCAGGCCAUCGGCCUCUGACCACUUCACCCUCAACAAACUUCCUACUUGGCAUUUUCUAAAAUUAGUCUGGCCGCGCUCCGGCGGGAACUCCAGCCACUCCAGGACAGUCACCCGCACAGCAACAGAGGAUUGAGCAUCA
B7: chr17:56739783:56739784:+_ENSMUSG00000071054_ENSMUST00000095224|mus_hu|FALSE|FALSE (ssRNA)
RNA: GGGAGUUCUACAGUCCGACGAUCAUAUUUGCUGAAAAGAUUCUUCAAAUCUGUAGCUCUGGUUGUAGAAGAGAGUCCACUAACCCAGAAAUUUCUACCACAACUGCUGCGACCCUUUUCCUCUUUGGAAAGCCUUUUUGUAUCCAACAGAGGAUUGAGCAUCA
B8: 3496528_3496648_1171_3pUTR_ENSMUSG00000024908_ENSMUST00000113997|mouse|control|control (ssRNA)
RNA: GGGAGUUCUACAGUCCGACGAUCGGCUCGAGUAGGAGUUCAUGGAAAGAUCCAAGUCUUCCUCGGAUGGCUUCAAGAACACUCUUGUUAACUGAACAAGCUGAAUGACUCAUGCCCGGGGGGCAGAUUUCUAUAUGGCCUUCACAACAGAGGAUUGAGCAUCA
B9: chr5:171327072:171327073:-_ENSG00000072803_ENST00000265094|hu_mus|motif|central (ssRNA)
RNA: GGGAGUUCUACAGUCCGACGAUCCACCAGCUCUGCUGCACACAGAGACCUGGCAUCCAGGUAGGAGAGAAUGUUUUCUGCGGUGUGAUCUAAGCCUUGCUCUGGUAAAGCAGUGAUAAAGUCCCGCUGCAACAUGGGCUUCAGCAACAGAGGAUUGAGCAUCA
B10: 91048680_91051365_300_3pUTR_ENSMUSG00000030091_ENSMUST00000032179|mouse|control|control (ssRNA)
RNA: GGGAGUUCUACAGUCCGACGAUCCUGCCCUGUAGUGAUGUCUUCUGCAAAGAUGAUGCUGGUCAGGCGGGCUGGCUGGGUCAAGCGGGCCUGCACCACUGCCUUCUGGGAGCACUGCUGUUCACUGGAGCCCAACGGCUCUAUCAACAGAGGAUUGAGCAUCA
B11: chr5:144009550:144009551:+_ENSMUSG00000029587_ENSMUST00000032591|mus_mus|FALSE|FALSE (ssRNA)
RNA: GGGAGUUCUACAGUCCGACGAUCCAUCCAAAUUUACAGACAAUAAAUCUCUCUAUUGACACAUCAAAAUAAAUGAUUUCCUAAAUUCCACUUCUGAAUUGCAUAACUCCUACAGAGUGUAAUGGGGCACCAGGCUGUCCUGUUCAACAGAGGAUUGAGCAUCA
B12: chr17:64801638:64801639:+_ENSG00000154229_ENST00000413366|hu_mus|hu_hu_hu_mus_False|58_68 (ssRNA)
RNA: GGGAGUUCUACAGUCCGACGAUCUAUAUAUAUAUAUACAUAUGUACACAUAUAUAGUAAAACCCUAAUCUAUCACGUAAACUAGCCAUUCAUUUUUAAAAUUACAUCUACAUUAAAAAAUUAAUAUAUCUGAUAGAGUGCCAGCAACAGAGGAUUGAGCAUCA
B13: chr11:75505782:75505783:+_ENSMUSG00000017776_ENSMUST00000017920|mus_mus|FALSE|FALSE (ssRNA)
RNA: GGGAGUUCUACAGUCCGACGAUCUGCCUCCUCCUGCCUGAGAAUCACUCCACUACCCUGCCUUGAUCUGGCCACUGGUUCUAUCAAUGUUGUAGUGUCCAAAUAGUGUAUUUUGUAGAAUUCCAGUAAAGCAGGCAAUGAAUCCAACAGAGGAUUGAGCAUCA
B14: 8158408_8158897_535_CDS_ENSG00000178921_ENST00000314666|human|control|control (ssRNA)
RNA: GGGAGUUCUACAGUCCGACGAUCGAAGUGCUGCUCUGUCAUCCGGUCGUGCAGGGUAGCCAGAGCAAUGGCUUCCACCUCAGCUGACGGGGGGUGGGCAAACGAGAGCCGGUAGCGCCGGGUGGUCUCCACACGAUCCACAGGCAACAGAGGAUUGAGCAUCA
B15: chr4:41262718:41262719:+_ENSG00000154277_ENST00000284440|perfect_dup|FALSE|FALSE (ssRNA)
RNA: GGGAGUUCUACAGUCCGACGAUCUCCGAUUGUGCCACAGGAAUUCCCAAUGGUCUGCUUCAUGAAGUACACUUUAGGACUAACUUCUUGUCCCUUCAGCUCUUCAAUCUGCUUUUUCCUGAAGUUCUCAUGCUGGGCCGUGAGCAACAGAGGAUUGAGCAUCA
B16: chr5:138654669:138654670:+_ENSG00000015479_ENST00000502499|hu_mus|motif|central (ssRNA)
RNA: GGGAGUUCUACAGUCCGACGAUCUUUCUUUAUUCUCUUAUACUUCUGGGAUAAAUGAACUCUCACUGGCUUGCCAAACACGGAUGCUGGUGUAGUUGUAUAAUAAUCCACAGCAGCCUGAGCAUCUUCUGUGGUGGCCAUUUCCAACAGAGGAUUGAGCAUCA
B17: chr2:47387792:47387793:-_ENSG00000143933_ENST00000272298|hu_hu|hu_hu_hu_mus_True|18_28 (ssRNA)
RNA: GGGAGUUCUACAGUCCGACGAUCUAAGGACAAUGACAGUAAGAUAAGGGAAGAAAACAUGGAGGAAUGAAGUCCUAAUUACUAUACAUGCAUAUUUUUUGACAGUAAGGGAGAAACCUUUUACAGAGAUAAGUUACAAACAAACAACAGAGGAUUGAGCAUCA
B18: chr7:75956504:75956505:-_ENSG00000170027_ENST00000307630|hu_hu|FALSE|FALSE (ssRNA)
RNA: GGGAGUUCUACAGUCCGACGAUCAUAUAACUGCAUGUCACUAUAGCAACAUCCAAAACAGAUCAAUUUGUUACAAUCACUAUUUGGUAGAGCAAACUUUACCCCCAAAAGGAAAAAUUAAAUUAAAAAAAAAAAACCUUUAAACAACAGAGGAUUGAGCAUCA
B19: chrX:71549762:71549763:+_ENSMUSG00000019087_ENSMUST00000019231|mus_mus|mus_mus_mus_hu_False|18_28 (ssRNA)
RNA: GGGAGUUCUACAGUCCGACGAUCAAACCCGUGUACUUCUUAUUGUUAGCACAACAUCACCAGAAAACGAUAACGACAGCCAAGCAGGACAGACAGUUAAGUAGUACUUCCACACCUCGCAAAUUCAGGAGCCCUAUAACCUUACAACAGAGGAUUGAGCAUCA
B20: chr8:98253062:98253063:-_ENSMUSG00000036550_ENSMUST00000098473|mus_hu|FALSE|FALSE (ssRNA)
RNA: GGGAGUUCUACAGUCCGACGAUCGGUUUCCAACACAUGCUCAGGUGCAUUGAGUUCCAAGAGAAGCAUGAUAAAAAUUCGAUGGUAGGGAAGUUGCUGAAAUUCACUCUGACGAACAUCAUGAUCCUGAAGGAGAACUCCCACCAACAGAGGAUUGAGCAUCA
B21: 42743316_42743436_1351_3pUTR_ENSG00000103994_ENST00000263805|human|control|control (ssRNA)
RNA: GGGAGUUCUACAGUCCGACGAUCACUGUAAAUCCAGAGUCUUCUGAGAAGGGUAAGGCGUCCAGCGACGAGGCUUUUCCCUUGCCGCACUGCCAUUCUUUCCACUAACUUUGGAAGUAGCAGUGUCUGCUUGUUUAGUGGUUUCAACAGAGGAUUGAGCAUCA
B22: 98547405_98547747_5270_CDS_ENSG00000196367_ENST00000355540|human|control|control (ssRNA)
RNA: GGGAGUUCUACAGUCCGACGAUCAAAACGACCAGUAAAGGCUCGGAGCAGCUGGAACAGCAAUUCUAUAUCUCCGUAAUUCCUUUUGCAGUAGUUCAGCAGGCAGUAGGCCAGCAGCUUGGGCUCCUUCCAGUUGGUGGCUGCCAACAGAGGAUUGAGCAUCA

Some of the results follow.

This experiment concerns the target T1, UNK ZnF1-3. As to the kind of experiment: nsRBNS (natural sequence RNA bind-n-seq); RBNS binding buffer (assumed for nsRBNS): 25 mM Tris pH 7.5, 150 mM KCl, 3 mM MgCl2, 0.01% Triton X-100, 500 ug/ml BSA, 20 U/ml SUPERase-In, 4 C; UNK is unkempt and MSI1 is Musashi-1; names of the RNAs are library labels; protein concentration not given here; high values mean tight binding.
B1 registered a binding signal of 0.636 enrichment R. As for B2, the binding signal turned out to be 0.689 enrichment R. The value for B3 was 0.645 enrichment R; that for B4 was 0.66 enrichment R; that for B5 was 2.52 enrichment R. Regarding B6, the binding signal was found to be 1.23 enrichment R. The figure for B7 is 0.76 enrichment R; for B8 it is 1.1 enrichment R; for B9 it is 0.913 enrichment R.

Turning to B10, the binding signal is 0.87 enrichment R. The molecule B11 registered a binding signal of 1.22 enrichment R. B12 yielded a binding signal of 1.22 enrichment R. The figure for B13 is 1.04 enrichment R; for B14 it is 0.568 enrichment R. For the molecule B15, the binding signal was 0.857 enrichment R.

B16 returned a binding signal of 1.1 enrichment R. The value for B17 was 1.88 enrichment R. The value for B18 was 1.78 enrichment R; that for B19 was 1.49 enrichment R. The figure for B20 is 1.72 enrichment R; for B21 it is 0.547 enrichment R; for B22 it is 1.2 enrichment R.
